Legend:
[1] = system: human prostate cancer LNCaP cells; assay: Inhibition of the growth of prostate cancer cells (MTT), LNCaP; type: cell-based; settings: R1881 added, 96 hours
Protocol: (§1) The ability of compounds to inhibit the growth of prostate cancer cells was tested:
(§2) First, the human prostate cancer LNCaP (purchased from ATCC, USA) and 22RV1 (purchased from SIBS) cells were transferred to a RPMI1640 culture medium containing 10% charcoal-stripped fetal bovine serum (FBS). After cultured for three days, the cells were digested with 0.25% trypsin and counted through trypan blue staining. The cells were plated, with 100 μL cell suspension containing 5000 cells per well. 200 μL medium was added to the wells around the cell plate for avoiding edge effects.
(§3) The next day, 6 drug concentrations was prepared (48.6 μM, 19.44 μM, 7.776 μM, 3.11 μM, 1.24 μM, 0.5 μM) before administration, and 100 μl, of corresponding compound at corresponding concentration was added into each well of a cell plate. The cell plate was placed in a cell incubator for 30 min, 10 μL of 4 nM R1881 was added into each well and homogeneously mixed. Upon the addition of R1881, the cell plate was placed in a cell incubator and incubated at 37° C., under 5% CO2 for 96 hours. Afterwards, 40 μL of MTT (prepared in PBS, concentration is 2.5 mg/mL) was added into each wells, and incubated at 37° C. for 2 hours. The supernatant was sucked off, and 100 μL of DMSO was added into each well. The plate was shaken by a vibrator for 10 min for dissolving formazan. The plate was read at 570 nm wavelength using a microplate reader in the unit of OD. The inhibition rate of test compounds was calculated with the following equation: IR(%)=(ODcontrol−ODsample)/(ODcontrol−ODblank)×100%
(§4) The inhibition rate curve of test compounds was plotted using the software XLFit (Formula 205), which can calculate the 50% inhibition rate, i.e. IC50.

[2] = system: human prostate cancer 22RV1 cells; assay: Inhibition of the growth of prostate cancer cells (MTT), 22RV1; type: cell-based; settings: R1881 added, 96 hours
Protocol: as §1, §2, §3, §4

In the case of [2H]C([2H])([2H])NC(=O)c1ccc(N2C(=S)N(c3ccc(C#N)c(C(F)(F)F)c3)C(=O)C2(C([2H])([2H])[2H])C([2H])([2H])[2H])cc1F [Example 10, 4-{7-[4-cyano-3-(trifluoromethyl)phenyl]-5,5-hexadeuterodimethyl-4-oxo-2-thio-1-imidazolidinyl}-2-fluoro-N-trideuteromethyl benzamide], the IC50 [1] is reported as 1.49 µM.

[2H]c1cc(C#N)c(C(F)(F)F)c([2H])c1N1C(=O)C(C)(C)N(c2ccc(C(=O)NC)c(F)c2)C1=S [Example 13, 4-{7-[4-cyano-3-trifluoromethyl-2,6-dideuterophenyl]-5,5-dimethyl-4-oxo-2-thio-1-imidazolidinyl}-2-fluoro-N-methyl benzamide] was tested, and the IC50 [2] was 15.6 µM and the IC50 [1] was 2.74 µM.

Molecule [2H]C([2H])([2H])C1(C([2H])([2H])[2H])C(=O)N(c2ccc(C#N)c(C(F)(F)F)c2)C(=S)N1c1ccc(C(=O)NC)c(F)c1 [Example 9, 4-{7-[4-cyano-3-(trifluoromethyl)phenyl]-5,5-hexadeuterodimethyl-4-oxo-2-thio-1-imidazolidinyl}-2-fluoro-N-methyl benzamide] has an IC50 [2] of 26.5 µM and an IC50 [1] of 1.86 µM.

[2H]c1cc(C(=O)NC)c(F)c([2H])c1N1C(=S)N(c2ccc(C#N)c(C(F)(F)F)c2)C(=O)C1(C)C [Example 7, 4-{7-[4-cyano-3-(trifluoromethyl)phenyl]-5,5-dimethyl-4-oxo-2-thio-1-imidazolidinyl}-3,5-dideutero-2-fluoro-N-methyl benzamide] was tested, and the IC50 [2] was 19.7 µM and the IC50 [1] was 2.2 µM.

With [2H]C([2H])([2H])NC(=O)c1ccc(N2C(=S)N(c3ccc(C#N)c(C(F)(F)F)c3)C(=O)C2(C)C)cc1F [Example 6, 4-{7-[4-cyano-3-(trifluoromethyl)phenyl]-5,5-dimethyl-4-oxo-2-thio-1-imidazolidinyl}-2-fluoro-N-trideuteromethylbenzamide] the IC50 [2] was 13.4 µM and the IC50 [1] was 0.99 µM.

For CNC(=O)c1ccc(N2C(=S)N(c3ccc(C#N)c(C(F)(F)F)c3)C(=O)C2(C)C)cc1F [Example 4, 4-{7-[4-cyano-3-(trifluoromethyl)phenyl]-5,5-dimethyl-4-oxo-2-thio-1-imidazolidinyl}-2-fluoro-N-methyl-benzamide, reference compound], the IC50 [2] was 30.6 µM and the IC50 [1] was 8.93 µM.

For [2H]c1cc(C(=O)NC([2H])([2H])[2H])c(F)c([2H])c1N1C(=S)N(c2ccc(C#N)c(C(F)(F)F)c2)C(=O)C1(C)C [Example 8], the IC50 [2] was 18.7 µM and the IC50 [1] was 1.01 µM.
